The text below walks through data of PubChem BioAssay (NCI).

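Cultured in 96-well plates, cells were exposed to test compound for 48 hours across five concentrations. The concentration for 50% growth inhibition is given as GI50. TGI is the concentration that stops growth completely.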

This assay concerns NCI-H322M lung. The experiment in a line: DTP human tumour cell line panel, 48 h.

As for `COc1cc(NCc2ccc3n2-c2ccccc2OC3)cc(OC)c1OC`, the TGI was more than 100 µM. On the same count and under the same terms, then `O=[N+]([O-])c1ccc(N2N=C(c3ccc4ccccc4c3O)CC2c2ccc(Cl)cc2Cl)c([N+](=O)[O-])c1` (stereo not given), with more than 100 µM.

Turning to `CCCCCC(=O)Cc1cc(OC)cc2c1C(=O)Oc1cc(O)c(C(=O)O)c(CC(=O)CCCCC)c1O2`, the TGI was more than 100 µM. For `CC(=O)OCC(=O)C1(O)C(C)CC2C3C=C(C)C4=Cc5c(cnn5-c5ccccc5)CC4(C)C3C(O)CC21C` (stereo not given), the GI50 is 2.69 µM and the total growth inhibition concentration (TGI) was 10.5 µM.

In the case of `CCCCCCC1N=C(N)N=C(N)N1c1ccc(Cl)cc1` (stereo not given), the GI50 is 10.2 µM and the total growth inhibition concentration (TGI) was more than 100 µM. On to `CCOc1ccc2c(c1)NC(=O)C(C1OC(c3ccccc3)=CC1=O)S2` (stereo not given), for which the total growth inhibition concentration (TGI) is more than 100 µM.

The molecule `CC(C)(C)c1cc(C(C)(C)C)c2sc(=S)oc2c1O` showed a TGI of 25.3 µM. For the molecule `N#CSCC(=O)c1ccc(Cl)cc1`, the GI50 is 2.93 µM and the total growth inhibition concentration (TGI) is more than 34.6 µM.

On to `COC(=O)/C(=N\O)C(C(=O)C=C(C)C)C(=O)C(=O)Nc1ccccc1C` (stereo not given), for which the concentration for total growth inhibition (TGI) was more than 100 µM. Same read-out and setting: the result for `O=C(Nc1cc(Cl)c(Cl)cc1Cl)C(=O)C(C(=O)c1ccc2ccccc2c1)C1OC(=O)c2ccccc21` (stereo not given) reads 44.4 µM.

`C[C@H](O)C(=O)SC[C@H](NC(=O)CC[C@@H](N)C(=O)O)C(=O)NCC(=O)O` showed a concentration for total growth inhibition (TGI) of more than 100 µM. `NC(=O)NC(=O)C1CCCCC1C(=O)O` (stereo not given) yielded a concentration for total growth inhibition (TGI) of more than 100 µM. Still for that read-out and setting: the result for `CC(C)Cc1cccc(C(C)C)c1NC(=O)CCC(=O)N/N=C1\C(=N/NC(=O)CCC(=O)Nc2c(C(C)C)cccc2C(C)C)C(c2ccc3c(c2)OCO3)Oc2ccccc21` (stereo not given) reads more than 100 µM. Regarding `COC(=O)Nc1nc2ccc(Sc3ccccc3)cc2[nH]1`, the GI50 was 0.844 µM and the TGI came out at 38.6 µM. Turning to `C=C1CC(C/C=C(\C)CC2CC(=C)C(=O)O2)OC1=O` (stereo not given), the total growth inhibition concentration (TGI) is more than 100 µM. Molecule `COC(=O)CCc1ccc2c(c1)CC1(C2)Cc2ccc3c(c2C1)CCC3` (stereo not given) showed a TGI of more than 100 µM.

In turn, `COC(=O)C1=Cc2c(OC)cc(OC)c(OC)c2[C@H](c2cc(OC)c(OC)cc2OC)C1C(=O)OC` (stereo not given in full) came in with a TGI of more than 100 µM.

Consider `Nc1cnc2c(c1)c(=O)nc1n2CCS1`, for which the concentration for total growth inhibition (TGI) is more than 100 µM. On the same count and under the same terms, then `CCOC(=O)c1c(C(F)(F)F)oc2c1ccc1nc3nonc3nc12`, with 76.9 µM. As to `CCN1C(=O)N(CC)C2C1NN=c1s/c(=C\c3ccccc3)c(=O)n12` (stereo not given), the GI50 is 0.72 µM and the TGI is more than 100 µM. With `CNCCOc1nc2c3cnccc3cc(-c3cc(OC)c(OC)c(OC)c3)c2c2ccncc12`, the GI50 is 0.0948 µM and the total growth inhibition concentration (TGI) stood at 0.764 µM. On to `Cc1cc(C)c2[s+]snc2c1`, for which the total growth inhibition concentration (TGI) was more than 100 µM. Still for that read-out and setting: then `COC1=CC(=O)c2ccccc2C1(C)C1=NC(C)(C)CO1` (stereo not given), with more than 100 µM; and `COCC12CC(CC1=O)C1C2ON2c3ccccc3C(=O)C12c1ccccc1` (stereo not given), with more than 100 µM; and `Cc1cc(C)c2c(c1)C(=O)C1(C2)Cc2c(ccc(C)c2C)C1=O` (stereo not given), with more than 100 µM. On to `CS[C@@]1(C(=O)Nc2ccc3[nH]nc(-c4ccc(OC(C)C)nc4)c3c2)CCN(CC(=O)N2CC=C(c3ccc(-c4ncn(C)n4)cc3)CC2)C1`, for which the GI50 is 0.455 µM and the TGI is more than 100 µM.

With `C=C1C(=O)OC2/C=C(\C)CC(O)/C=C(/CO)CC(OC(=O)/C(C)=C/C)C12` (stereo not given), the TGI was 242 µM. On the same count and under the same terms, the result for `Nc1ccc(C(=O)NN2C(=O)C(Cl)C2c2cccc([N+](=O)[O-])c2)cc1` (stereo not given) reads 29.5 µM; that for `CC1(C)O[C@@H](CP(c2ccccc2)c2ccccc2)[C@H](CP(c2ccccc2)c2ccccc2)O1`, 60.3 µM; that for `N#CC(c1ccccc1)N(CCc1ccccc1)C(=O)Oc1ccccc1` (stereo not given), more than 100 µM. The same measure, in the same setting: the result for `COC(=O)c1cc(C)n(NC(=O)OC(C)(C)C)c1C` reads more than 100 µM.

Regarding `COc1ccc(C2C3=C(COC3=O)N(CCO)c3cc4c(cc32)OCCO4)cc1OC` (stereo not given), the GI50 was 11 µM and the total growth inhibition concentration (TGI) is more than 50 µM. On to `N#CC(C#N)=Cc1ccc(-c2ccc(-c3nc4ccccc4o3)cc2)o1`, for which the GI50 was 85.3 µM and the concentration for total growth inhibition (TGI) is more than 100 µM. In turn, `NC(=O)C(=CN1CC(=O)NC1=S)C(N)=O` registered a TGI of more than 100 µM. The same measure, in the same setting: the result for `Cc1ccccc1NC(=O)C(=O)Cc1cnc2ccccc2n1` reads more than 100 µM; that for `N#CC12Cc3ccc4c(c3-c3cccc(c31)CCN2C(=O)c1ccccc1)OCO4` (stereo not given), more than 100 µM; that for `O=C(/C=C/c1ccc(Cl)c(Cl)c1)C1CCC(Cl)CC1` (stereo not given), more than 100 µM. Still for that read-out and setting: the result for `COc1ccc(C2C(Cl)C(=O)N2NC(=O)c2ccc(N)cc2)cc1OC` (stereo not given) reads 27.8 µM. Same read-out and setting: the result for `CC(O)=NC(Cc1ccc2ccccc2c1)C(O)=NC(Cc1ccc(Cl)cc1)C(O)=NC(Cc1c[nH]c2ccccc12)C(O)=NC(CO)C(O)=NC(Cc1ccc(O)cc1)C(O)=NC(CCCN=C(N)N)C(O)=NC(CC(C)C)C(O)=NC(CCCN=C(N)N)C(=O)N1CCCC1C(O)=NC(C)C(=N)O` (stereo not given) reads 64.3 µM; that for `COC(=O)c1ccc(NCc2cc(O)ccc2O)cc1O`, 26.3 µM; that for `O=C(NNC(=O)c1ccccc1Cl)c1ccccc1O`, more than 100 µM. With `CN(NC(=O)c1cccs1)C1=NCCN1`, the TGI was more than 100 µM. Same read-out and setting: then `COc1cccc(-c2cc(=O)c3cccnc3[nH]2)c1`, with more than 100 µM. As for `O=C(NO)c1cnc(N2CCN(S(=O)(=O)c3ccc4ccccc4c3)CC2)nc1`, the GI50 was 0.138 µM and the concentration for total growth inhibition (TGI) stood at 3.26 µM. Take `Oc1[nH]c2ccc(Cl)cc2c1/C=c1/ccc2c(c1)N=C(c1cc(F)cc(F)c1)N=2`: the GI50 is more than 100 µM and the concentration for total growth inhibition (TGI) is more than 100 µM.

With `O=[N+]([O-])c1ccc(-c2ccccc2)c([As](=O)(O)O)c1`, the GI50 was 32.8 µM and the total growth inhibition concentration (TGI) is more than 100 µM. On the same counts, the results for `CCNCCNc1cc(-c2cccc(C(F)(F)F)c2)c(C#N)c2nc3ccccc3n12` are 1.66 µM and 3.14 µM. Take `COc1ccc2c(c1)c1c3c(ccc4ncn2c43)N(CCN(C)C)CCN=1`: the TGI worked out at 1.99 µM. On the same count and under the same terms, then `C[N+](C)(Cc1ccc(NC(=O)CCCC(=O)ON2C(=O)CCC2=O)cc1)c1ccccc1`, with 60.4 µM.

The molecule `CC1CC(NN(C)C)C2(C(N)=O)C(N)=NC(=O)C12C#N` (stereo not given) gave a concentration for total growth inhibition (TGI) of more than 100 µM.

For `Cc1cc(=O)oc2c(CNC(C(=O)O)C(C)O)c(O)ccc12` (stereo not given), the concentration for total growth inhibition (TGI) was more than 100 µM. As to `CN(C)CCOc1nc2ccccc2c2c1-c1ccc(Cl)cc1C2=O`, the GI50 was 0.538 µM and the TGI is 2.19 µM. Regarding `CC[C@@]1(OC(=O)CN)C(=O)OCc2c1cc1n(c2=O)Cc2cc3c(N)c4c(cc3nc2-1)OCO4`, the GI50 is 0.00746 µM. `O=C1C2Nc3ccccc3SC2C(=O)N1c1cccc([N+](=O)[O-])c1` (stereo not given) had a total growth inhibition concentration (TGI) of more than 100 µM.

As for `C[C@@H](Oc1cc(-c2cnn(C3CC4(CCCNC4)C3)c2)cnc1N)c1c(Cl)ccc(F)c1Cl` (stereo not given in full), the GI50 is 2.6 µM and the TGI is 7.74 µM.

One may read the TGI as the concentration at which net growth stops. In general, GI50 refers to the concentration that inhibits growth by half.
